Results: PubChem BioAssay AID1347165 (National Center for Advancing Translational Sciences (NCATS), 2019)
Hit rate of the full screen: of about 220,000 compounds, about 5,700 (2.6%) were called active. Inconclusive means that the source gave no clear call. Such entries were picked first, then a sample of the others. Calls come from the whole dose curve; as a rule, active = well fitted inhibition curve with a large enough effect; inconclusive = small, poorly fitted or top-dose-only effect; inactive = no such curve, though single readings can be large or run the other way. Where the call is inconclusive, the potency comes from a doubtful curve fit.

Each molecule was assayed against Lysine-specific demethylase 5B (Homo sapiens) (UniProt Q9UGL1) (assay: Primary screen for KDM5B Histone Demethylases FDH-coupled qHTS). Conditions: FDH-coupled NADH fluorescence (FDH is formaldehyde dehydrogenase); activity change, negative = inhibition: at 57.7 µM (top of the series) unless noted.
How it was run: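 Measured: NADH fluorescence change, 30 min, RT. System: KDM5BΔAP 200 nM final, H3K4me3 peptide, α-KG, Fe(II), ascorbate, NAD⁺ plus FDH, pH 7.5 HEPES. Compounds: titrated, 10 min pre-incubation with enzyme.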
Note: nearly all actives have a fitted effect of over 70% in size.
Potency is the fitted concentration of half-maximal effect; tags give direction and shape of the fitted curve.
Throughout, for activity change, negative = inhibition: 0% is about no effect.

Sequence of UniProt Q9UGL1 (Q9UGL1 whole entry, looked up): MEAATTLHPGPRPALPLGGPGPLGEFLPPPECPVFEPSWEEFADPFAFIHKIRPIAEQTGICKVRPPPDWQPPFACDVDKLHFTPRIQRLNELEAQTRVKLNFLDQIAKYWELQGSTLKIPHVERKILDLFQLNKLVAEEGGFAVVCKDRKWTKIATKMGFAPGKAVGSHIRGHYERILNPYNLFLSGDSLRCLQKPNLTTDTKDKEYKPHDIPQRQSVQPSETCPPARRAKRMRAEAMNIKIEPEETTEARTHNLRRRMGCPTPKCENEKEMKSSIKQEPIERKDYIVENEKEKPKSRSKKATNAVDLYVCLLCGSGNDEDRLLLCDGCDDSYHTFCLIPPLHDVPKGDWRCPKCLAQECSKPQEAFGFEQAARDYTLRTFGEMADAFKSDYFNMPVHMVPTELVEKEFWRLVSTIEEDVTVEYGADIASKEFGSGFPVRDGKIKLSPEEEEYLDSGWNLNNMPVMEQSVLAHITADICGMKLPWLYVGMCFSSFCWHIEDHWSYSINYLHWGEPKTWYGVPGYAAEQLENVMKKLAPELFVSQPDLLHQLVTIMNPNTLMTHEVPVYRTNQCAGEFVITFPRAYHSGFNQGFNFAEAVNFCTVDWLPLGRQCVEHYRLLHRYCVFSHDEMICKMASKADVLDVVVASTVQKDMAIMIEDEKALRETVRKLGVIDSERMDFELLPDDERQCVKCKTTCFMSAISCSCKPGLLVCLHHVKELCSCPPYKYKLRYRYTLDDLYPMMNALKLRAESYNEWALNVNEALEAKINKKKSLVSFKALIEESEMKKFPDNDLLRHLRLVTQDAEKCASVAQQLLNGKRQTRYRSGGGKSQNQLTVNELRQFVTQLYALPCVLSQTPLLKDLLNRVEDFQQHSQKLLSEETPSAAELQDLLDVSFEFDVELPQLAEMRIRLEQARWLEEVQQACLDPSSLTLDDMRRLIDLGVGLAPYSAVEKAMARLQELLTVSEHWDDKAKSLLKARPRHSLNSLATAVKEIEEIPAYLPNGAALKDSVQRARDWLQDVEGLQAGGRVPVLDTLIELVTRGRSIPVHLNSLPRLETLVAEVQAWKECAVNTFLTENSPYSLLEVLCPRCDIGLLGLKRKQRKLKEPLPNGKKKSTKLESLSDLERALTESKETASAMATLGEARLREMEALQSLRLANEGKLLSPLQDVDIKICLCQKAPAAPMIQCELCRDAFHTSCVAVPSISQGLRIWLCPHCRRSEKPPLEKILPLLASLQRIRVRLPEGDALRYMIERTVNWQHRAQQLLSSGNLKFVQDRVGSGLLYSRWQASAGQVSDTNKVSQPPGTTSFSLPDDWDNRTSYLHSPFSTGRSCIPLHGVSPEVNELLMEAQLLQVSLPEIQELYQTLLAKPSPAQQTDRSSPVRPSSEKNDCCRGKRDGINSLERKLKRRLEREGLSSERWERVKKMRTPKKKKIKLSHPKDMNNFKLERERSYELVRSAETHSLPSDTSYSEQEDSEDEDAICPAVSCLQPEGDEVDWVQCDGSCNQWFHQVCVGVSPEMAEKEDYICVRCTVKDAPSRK

Row | SMILES | Potency | activity change, negative = inhibition
1 | CC(C)CN1CC[C@H](c2nc3ccccc3n2C)C1 | inconclusive: 35.5 µM [inhibitor, single point] | –
2 | CCO[C@H]1CN(C(=O)COc2ccc(-n3cnnn3)cc2)C[C@@H]1O | – | inactive: 6.37%
3 | COc1ccc2c(c1)OCC(CNC(=O)c1cnn3ccccc13)C2 (configuration not stated) | active: 25.1 µM | –
4 | Cc1cc(NCc2ccccn2)n2nc(C)c(-c3ccc(Cl)cc3)c2n1 | inconclusive: 25.1 µM [inhibitor, partial curve, poor fit] | –
5 | O=C1Nc2ccc(-c3ccc4c(c3)OCO4)cc2C(=O)N2CCN(C(=O)c3cccnc3)C[C@H]12 | – | inactive: -29.2%
6 | Cc1cccc(NC(=O)Cn2c(=O)n(CCC(C)C)c(=O)c3cccnc32)c1 | inconclusive: 1.12 µM [inhibitor, full curve, poor fit] | –
7 | CC(Sc1nc(C(F)(F)F)nc2ccccc12)C(=O)NC(C)(C)C (configuration not stated) | – | inactive: 22.2%
8 | CCc1nc(CNCc2cccc(NC(=O)c3ccc(F)cc3)c2)cs1 | – | inactive: 5.22%
9 | CC(Sc1ccccn1)C(=O)Nc1ccc(Cl)cc1 (configuration not stated) | – | inactive: -2.3%
10 | COC(=O)C1CCN(C(=O)CC[C@H]2CNC(=O)[C@@H]3[C@@H](CCN3Cc3ccc(OC)cc3)N2C)CC1 | inconclusive: 12.6 µM [inhibitor, partial curve, poor fit] | –
11 | Cc1c(C=O)c(C)n(-c2cccc(Cl)c2)c1C | – | inactive: 21.5%
12 | COc1cc(NC(=O)c2cc3ccccc3cc2O)c(OC)cc1Cl | inconclusive: 39.8 µM [inhibitor, single point] | –
13 | COCCNc1ccc2nnc(-c3cc(C#N)ccn3)n2n1 | inconclusive: 39.8 µM [inhibitor, partial curve, poor fit] | –
14 | COc1ccccc1CNC(=S)Nc1ccc2nc(N3CCN(C)CC3)cc(C)c2c1 | inconclusive: 25.1 µM [inhibitor, partial curve, poor fit] | –
15 | N#CC1(NC(=O)COC(=O)CCN=C2NS(=O)(=O)c3ccccc32)CCCCC1 | – | inactive: 6.37%
16 | CSc1nnc2c(n1)OC(c1cc3c(cc1Br)OCO3)N(C(C)=O)c1ccccc1-2 (configuration not stated) | – | inactive: -7.8%
17 | O=C(Cc1ccc(F)cc1)N(Cc1ccco1)C1CC1 | inconclusive: 12.6 µM [inhibitor, partial curve, poor fit] | –
18 | CC(C)N1C[C@H](O)C[C@H]1c1nnc2n1CCN(C(=O)c1nccc3ccccc13)CC2 | – | inactive: -21%
19 | NNc1ccccc1[N+](=O)[O-] | – | inactive: -9.5%
20 | COc1ccc(-c2cnc3[nH]cc(CC(=O)Nc4cccc(F)c4)c3c2)cc1 | inconclusive: 39.8 µM [inhibitor, single point] | –
21 | O=C1Nc2ccccc2CNC12CCN(CC1CCNC1)CC2 (configuration not stated) | inconclusive: 89.1 µM [inhibitor, partial curve, poor fit] | –
22 | CC(C)CCCC(C)NC(=S)NN (configuration not stated) | inconclusive: 39.8 µM [inhibitor, single point] | –
23 | CCS(=O)(=O)NCCc1csc(-c2ccc(OC)c(OC)c2)n1 | inconclusive: 31.6 µM [inhibitor, partial curve, poor fit] | –
24 | CC1(c2ccccc2)COC(c2coc3ccccc3c2=O)OC1 (configuration not stated) | – | inactive: -4.37%

Row | SMILES | Potency | activity change, negative = inhibition
25 | O=C1NC(=S)CN1c1ccccc1 | inconclusive: 39.8 µM [inhibitor, partial curve, poor fit] | –
26 | CCOc1ccc(-c2cnc(NCc3ccc(C(F)(F)F)cc3)n2C)cc1 | inconclusive: 11.2 µM [inhibitor, partial curve, poor fit] | –
27 | CC(=O)N1CCN(c2ccnc(-c3nnc(C)n3C3CCCCC3)c2)CC1 | inconclusive: 28.2 µM [inhibitor, partial curve] | –
28 | CN1CCN(c2ncc3c(n2)CCN(Cc2cc(Br)cs2)C3)CC1 | inconclusive: 31.6 µM [inhibitor, single point] | –
29 | O=C(NC1CC(c2nnc(CO)n2C2CC2)C1)c1cccn2cnnc12 (configuration not stated) | active: 28.2 µM | –
30 | N#CC1CCN(C(=O)c2nc(-c3ccc(F)cc3)c3cnccn23)CC1 | active: 31.6 µM | –
31 | Cc1ccc(/C=N/NC(=O)c2ccc(NC(=O)c3ccccc3Cl)cc2)o1 | inconclusive: 35.5 µM [inhibitor, single point] | –
32 | CNC(=O)[C@@H](c1ccccc1F)N1CCC[C@H]1C(=O)NCC(C)C | inconclusive: 28.2 µM [inhibitor, partial curve, poor fit] | –
33 | Cc1cccc(OCCCCn2c(C3CC(=O)N(c4ccccc4Cl)C3)nc3ccccc32)c1 (configuration not stated) | inconclusive: 15.8 µM [inhibitor, partial curve, poor fit] | –
34 | COc1cc(-c2nc3cc(NC(C)=O)ccc3o2)cc(OC)c1OC | inconclusive: 28.2 µM [inhibitor, partial curve, poor fit] | –
35 | CCN1CCCC1CNC(=O)c1[nH]c2ccc(OC)cc2c1C (configuration not stated) | inconclusive: 35.5 µM [inhibitor, partial curve, poor fit] | –
36 | CN(C)CCNC(=O)c1cc2cc(Cl)ccc2[nH]1 | – | inactive: 149%
37 | CNc1nnc(SCc2cccc(C#N)c2)s1 | – | inactive: -9.58%
38 | Cc1cccc(NC(=O)c2cccc(C(=O)Nc3cccc(C)c3)n2)c1 | inconclusive: 39.8 µM [inhibitor, single point] | –
39 | CCOC(=O)CCNC(=O)N1CCOc2ccc(CN3CCc4ccccc4C3)cc2C1 | inconclusive: 10 µM [inhibitor, partial curve] | –
40 | O=C(c1ccco1)N1CCCn2cc(-c3ccc4c(c3)OCO4)nc21 | inconclusive: 17.8 µM [inhibitor, partial curve] | –
41 | COc1ccc(-n2cc(-c3ccccc3)c3c(NC4CCCCC4)ncnc32)cc1 | inconclusive: 25.1 µM [inhibitor, partial curve, poor fit] | –
42 | CCc1nc2cc(N3CCC(C(=O)NCc4cccc(F)c4)CC3)cnc2nc1CC | inconclusive: 14.1 µM [inhibitor, partial curve] | –
43 | COc1ccc(CCNC(=O)c2ccc(Cn3ccn4nc5c(c4c3=O)CCCC5)cc2)cc1OC | active: 28.2 µM | –
44 | CC1=C(C(=O)Nc2ccc(Cl)cc2)C(c2ccccc2C)n2ncc(C(=O)Nc3ccc(C)cc3)c2N1 (configuration not stated) | inconclusive: 31.6 µM [inhibitor, partial curve, poor fit] | –
45 | COc1ccc2c(c1)c(CN1CCOCCNC(=O)CC1)cn2C | inconclusive: 28.2 µM [inhibitor, single point] | –
46 | Cc1cc(C)c(S(=O)(=O)N2CCN(C)CC2)cc1Br | – | inactive: 3.78%
47 | NCc1ccc(-c2cccs2)cc1 | inconclusive: 112 µM [inhibitor, partial curve, poor fit] | –
48 | COc1ccc(CCNC(=O)C(=O)NCC(c2ccc3c(c2)OCO3)N2CCOCC2)cc1 (configuration not stated) | inconclusive: 35.5 µM [inhibitor, single point] | –

Row | SMILES | Potency | activity change, negative = inhibition
49 | Oc1ccc(-c2nc(-c3cc(F)ccc3F)cs2)cc1 | inconclusive: 35.5 µM [inhibitor, single point] | –
50 | COc1ccc(-c2nnc(SC)nc2-c2ccc(OC)c([N+](=O)[O-])c2)cc1[N+](=O)[O-] | inconclusive: 39.8 µM [inhibitor, single point] | –
51 | O=C(Nc1ccccc1)c1ccc(Cn2ccn3nc4c(c3c2=O)CCCC4)cc1 | active: 22.4 µM | –
52 | CCc1ncc2c(=O)n(Cc3ccc(OC)cc3)ccn12 | – | inactive: 8.96%
53 | Cc1csc2nc(COc3c(Cl)cccc3Cl)cc(=O)n12 | – | inactive: -10.7%
54 | Cc1cccc(N(CC(=O)Nc2c(C)cccc2C)S(C)(=O)=O)c1C | – | inactive: -2.81%
55 | CC(=O)Nc1ccc2oc(-c3ccccc3)nc2c1 | inconclusive: 20 µM [inhibitor, partial curve, poor fit] | –
56 | CCC(C)(CC(=O)O)CC(=O)O | – | inactive: 13.4%
57 | COc1ccc(OC)c(-c2nc3c(C#N)c[nH]n3c2NC2CCCCC2)c1 | inconclusive: 2 µM [inhibitor, full curve, poor fit] | –
58 | Cc1ccc(C)c(NC(=O)CN2CCC(C(=O)N3CCCC3)CC2)c1 | – | inactive: 3.6%
59 | CC(C)CCN1CCC(O)(c2csc(CN3CCN(c4ccccn4)CC3)n2)CC1 | – | inactive: 9.97% [at 86.2 µM]
60 | O=C(Nc1ccc(Cl)nc1)c1cnn2ncccc12 | active: 39.8 µM | –
61 | O=C(NC[C@H]1OC[C@@H](NC2CCC(F)(F)CC2)[C@@H]1O)c1ccncc1 | – | inactive: 13.7% [at 86.2 µM]
62 | COc1cc(C(=O)Nc2oc3c(C)cccc3c(=O)c2-c2ccccc2)cc(OC)c1OC | – | inactive: -2.44%
63 | O/N=C/c1ccc(OC(F)F)cc1 | – | inactive: 10.7%
64 | Cc1cccc(Nc2nnc(-c3cc4ccc(O)cc4oc3=O)s2)c1 | inconclusive: 22.4 µM [inhibitor, partial curve, poor fit] | –
65 | N#Cc1ccc(-c2cccs2)nc1SCc1c(F)cccc1Cl | inconclusive: 3.55 µM [inhibitor, full curve, poor fit] | –
66 | Fc1cccc(Cl)c1/C=C/c1cnc2ccccc2n1 | inconclusive: 28.2 µM [inhibitor, partial curve, poor fit] | –
67 | O=C(Nc1ccc(-c2nc3cc(NC(=O)c4ccccc4Cl)ccc3o2)cc1)c1ccccc1Cl | inconclusive: 35.5 µM [inhibitor, partial curve, poor fit] | –
68 | O=[S+]([O-])(Nc1ccccc1)c1ccc2c(c1)OCCN(Cc1ccc(F)cc1)C2 | – | inactive: -3.63% [at 86.2 µM]
69 | COCCCNS(=O)(=O)c1cc(-c2onc(C)c2C)ccc1OC | inconclusive: 17.8 µM [inhibitor, partial curve, poor fit] | –
70 | COCCNC(=O)C1(C)CN(Cc2ccccc2)Cc2ccc(N3CCOCC3)nc21 (configuration not stated) | active: 31.6 µM | –
71 | COc1cccc(NC(=O)O[C@@H]2CO[C@H]3[C@@H]2OC[C@@H]3Nc2nccc(-c3cccc(F)c3)n2)c1 | – | inactive: 38.8%
72 | CCOC(=O)/C(C#N)=C/c1cc(Br)ccc1OCc1ccccc1Cl | – | inactive: 3.59%
